Out of some 360,000 compounds screened, about 17,000 (4.7%) were called active. The shares of active, inactive and inconclusive entries below differ from those in the screen. No stated cut-off is given here; in the data, active means activity change below about -50%; inconclusive means mostly about -30% to -49%; inactive means weaker than that.
experiment: qHTS for Inhibitors of Inflammasome Signaling: IL-1-beta AlphaLISA Primary Screen; settings: THP-1 LPS/ATP IL-1B secretion, 16 h; at 57.5 µM, stronger effect = lower value
Summary of the method: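 Secreted IL-1B measured by AlphaLISA bead assay after 16 h compound exposure of THP-1 cells; compounds (final up to 57.5 uM) added 1 h before LPS (250 ng/mL) and ATP (1.25 mM) stimulation; lower signal means less secretion.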
On the % scale 0 is the no-effect control and ±100 the full control effect.

Structure (SMILES)	activity change
Cc1noc(-c2ccccc2OC(=O)c2ccccc2)n1	inactive: 8.81%
O=C(/C=C/c1cc2ccccc2o1)c1ccccc1O	active: -102%
COc1ccc(/C=c2\s/c(=C\C(=O)C(C)(C)C)[nH]c2=O)cc1O	inconclusive: -36.8%
O=C(c1cccc(F)c1)N1CCN=C1SCc1cccnc1	inconclusive: -44.7%
CCc1nc(C)ccc1OCC(=O)N1CCc2c([nH]c3ccccc23)C1c1ccccn1 (stereo unspecified)	inconclusive: -44.7%
Cc1ccc(C)n1-c1ccc(C(=O)N2CCC(C(N)=O)CC2)cc1	inconclusive: -44.6%
CCN(CC)CCNC(=O)c1cc2c(=O)n(C)c3ccccc3c2s1	inconclusive: -30.6%
Cc1noc(C)c1C(=O)Nc1nc(C23CC4CC(CC(C4)C2)C3)cs1	active: -58.4%
Cc1cc(C)c(S(=O)(=O)NC(CC(=O)O)c2cccc([N+](=O)[O-])c2)c(C)c1 (stereo unspecified)	inactive: 12.5%
COc1ccc(C(CNC(=O)c2oc3c(Cl)cccc3c2C)N2CCCC2)cc1 (stereo unspecified)	inconclusive: -33.3%
COCCNC(=S)N(CCc1c(C)[nH]c2ccc(Cl)cc12)Cc1cccnc1	inconclusive: -33.1%
Cc1[nH]c2ccc(-c3n[nH]c(=S)n3Cc3ccccc3)cc2c1C	active: -57.1%
CCCCn1c(SCC(=O)N2CCOCC2)nc2ccccc2c1=O	inactive: -1.11%
CC(=O)c1ccc(-c2ccc(C(=O)Nc3nc(-c4ccccn4)cs3)o2)cc1	inactive: 161%
CCOc1ccccc1N1CCN(C(=O)NC(C)c2ccc(F)c(F)c2)CC1 (stereo unspecified)	inconclusive: -31.5%
COc1ccc(CCNC(=O)/C(C#N)=C/c2cccc(OCc3ccccc3)c2)cc1OC	inconclusive: -40.1%
Cn1cccc1-c1cc(C(=O)N/N=C/c2ccc(F)cc2)[nH]n1	inconclusive: -31.8%
Cn1c(=O)c2c(nc(N3CCN(c4ccc([N+](=O)[O-])cc4)CC3)n2C)n(C)c1=O	inactive: -4.93%
COc1ccc2nc(C)cc(NCc3cccc(C(F)(F)F)c3)c2c1	active: -96%

Structure (SMILES)	activity change
CC1=C(C(=O)c2ccccc2)C(c2cn(-c3ccccc3)nc2-c2ccc(Cl)cc2)NC(=S)N1 (stereo unspecified)	inconclusive: -42.2%
CCCN(CC(=O)Nc1ccccc1C)C(=O)CCN1C(=O)c2cccc([N+](=O)[O-])c2C1=O	active: -51.4%
Cc1cccc(N2CCN(C(=O)Cc3ccccc3[N+](=O)[O-])CC2)c1C	inactive: 17.1%
OC[C@@H]1[C@@H](c2ccc(F)cc2)C(c2cccc(Cl)c2)=NN1c1ccccc1	inconclusive: -37.1%
COc1ccc(S(=O)(=O)Nc2noc3ccccc23)cc1OC	inactive: 0%
CC(NC(=O)COC(=O)Cc1ccc(Cl)cc1)c1ccccc1 (stereo unspecified)	inconclusive: -30.9%
COc1ccc(Cc2n[nH]c(=S)n2C)cc1Br	active: -68.3%
CC1(c2ccncc2)Nc2ccccc2-c2nc3ccccc3n21 (stereo unspecified)	inconclusive: -41.5%
COc1ccccc1/C=N/NC(=O)CC(=O)NC1CCCCC1	inactive: 9.84%
O=C(Nc1cccc(S(=O)(=O)C(F)F)c1)c1ccc(Cl)c(S(=O)(=O)N2CCOCC2)c1	active: -62.6%
CCc1ccccc1NC(=O)CCS(=O)(=O)c1ccc(OC)cc1	inactive: -4.36%
COc1ccc(C=CC(=O)c2ccc(OC)c(OC)c2O)cc1OC	inconclusive: -40.6%
COc1ccc(Nc2nc(-c3ccc(OC)cc3)cs2)cc1	inconclusive: -30.6%
COc1ccc(NC(=O)C(C)N(C)Cc2ccc3ccccc3c2)cc1 (stereo unspecified)	inconclusive: -30.3%
Cc1cc(Br)cc(C)c1OCC(=O)NNC(=O)CCC(=O)NCc1ccccc1	inactive: 6.28%
CC(C)=NNc1nc(-c2ccc([N+](=O)[O-])cc2)cs1	inconclusive: -47.6%
COc1cc2c(C#N)c(N3CCCC3)nc(N)c2c(N)n1	inconclusive: -34.6%
Cc1ccccc1C(=O)c1c[nH]c(C(=O)NCc2ccco2)c1	active: -51.6%
CCC(CC)NCC(O)COc1ccc(Br)cc1 (stereo unspecified)	active: -52.2%

Structure (SMILES)	activity change
Cc1ccc(-c2nc3ncccc3o2)cc1NC(=O)c1ccc2c(c1)OCO2	inactive: -0.931%
CCc1cccc(NC(=O)Cn2c3[n+](c4ccc(C(F)(F)F)cc42)CCCCC3)c1	active: -68.3%
O=S(=O)(Cc1ccccc1)Nc1ccc(F)cc1	inactive: -7.42%
O=C(Nc1ccc(S(=O)(=O)N2CCOCC2)cc1)c1ccc(CN2CCc3ccccc3C2)cc1	inconclusive: -49%
COCc1cc(C)n(CC(=O)Nc2ccccc2OC)c(=O)c1C#N	inactive: -24.3%
O=C(c1cccc(F)c1)N1CCN(c2ccc([N+](=O)[O-])c(N3CCCCC3)c2)CC1	inconclusive: -37.9%
Cc1ccc(C(=O)Nc2cccc(C(F)(F)F)c2)cc1NC(=O)c1ccno1	inconclusive: -45.4%
Cc1cc(C)c(N=Cc2c(O)n(-c3nccs3)c(=O)c3ccccc23)c(C)c1	inconclusive: -36.6%
Cc1ccc(C23CC4CC(CC(CN)(C4)C2)C3)cc1	active: -94.6%
CC(=O)N1CCN(c2ccccc2NC(=O)COc2cc(C)ccc2C(C)C)CC1	inconclusive: -41.6%
CC1OC23CCCCC2C(C#N)(C(=N)O3)C1(C#N)C#N (stereo unspecified)	inconclusive: -43.4%
Fc1ccccc1CN1CCCN(C(=S)Nc2cccc(Cl)c2)C1	inconclusive: -43.3%
Cc1ccc(NS(=O)(=O)c2ccc(NC(=O)CN(c3cc([N+](=O)[O-])ccc3C)S(C)(=O)=O)cc2)c(C)c1	inconclusive: -41.1%
O=C(/C=C/c1cccnc1)c1ccc(O)cc1	active: -97.9%
O=C(CN1CCN(c2ccccc2O)CC1)Nc1cc(S(=O)(=O)N2CCCC2)ccc1Cl	inconclusive: -37%
Clc1cc(Br)ccc1OCCCn1ccnc1	inconclusive: -49.6%
Cc1cc2ncn(C(=O)N3CCC(C)CC3)c2cc1C	inconclusive: -31.1%
CCc1cc(=O)oc2c(C)c(OC(C)C(=O)NC3CC(C)(C)NC(C)(C)C3)ccc12 (stereo unspecified)	inconclusive: -37.9%
